{"source": "PubChem BioAssay AID1345083", "about": "(National Center for Advancing Translational Sciences (NCATS), 2018)", "note": "“And” between values parts separate entries of the source, which are not always exact repeats. Identical values can stand only once. Out of some 94,000 compounds screened, about 6,200 (6.6%) were called active. The inconclusive results got no clear call from the source; some entries with a clear call stand among them for comparison. Calls follow the shape of the dose curve; as a rule, active = well fitted inhibition curve with a large enough effect; inconclusive = small, poorly fitted or top-dose-only effect; inactive = flat fitted curve, though single readings scatter. Potencies beside an inconclusive call are fits to weak or partial responses and may not hold up. % is scaled to controls: 0 for no effect and ±100 for the full control effect; potency is read from the fitted curve at half-maximal effect; tags tell the direction and shape of the fitted curve."}
{"experiment": "Cytotoxic Profiling in HEK 293 Cell Line of Diverse Libraries Using Quantitative High-Throughput Screening; also: nearly all actives have a fitted effect of over 60% in size", "conditions": "HEK 293 viability, ATP luminescence (CellTiter-Glo), 48-72 h; activity change, negative = cytotoxicity: at 115 µM (top of the series) unless noted; series mostly up to 115 µM", "in_short": "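Cells seeded first (HEK 293, 250 cells/well), then compound added by pintool. Incubation ran 48 or 72 hr at 37 degree Celsius. CellTiter-Glo was added and luminescence imaged after 10 min at room temperature.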"}
{"smiles": "COc1cncc(Nc2ncc(-c3ccccc3OC)c3c2OCC3)c1", "Potency": "inconclusive: 35.5 µM [inhibitor, partial curve, poor fit]"}
{"smiles": "COc1cccc(C(=O)N2CCC(N3C[C@H](O)C[C@H]3C(=O)Nc3ccc(F)cc3)CC2)c1", "activity change, negative = cytotoxicity": "inactive: -17.9%"}
{"smiles": "COc1cccc(C(=O)N2CCC(Cc3noc(-c4ccccc4)n3)C2)c1", "note": "(stereo not drawn)", "Potency": "inconclusive: 44.7 µM [inhibitor, partial curve, poor fit]"}
{"smiles": "COc1cccc(-c2ccc(C(=O)NCCNC(=O)c3cccc(Cl)c3)cc2)c1", "Potency": "inconclusive: 79.4 µM [inhibitor, partial curve, poor fit]"}
{"smiles": "CCCCCC(=O)N1C[C@@H](C(=O)OCC)[C@@H]2Oc3ccccc3[C@@H]21", "activity change, negative = cytotoxicity": "inactive: -12%"}
{"smiles": "Cc1nn(-c2ccccc2)c2c1C(C1CC1)N(C1CCN(Cc3cccc(Cl)c3)CC1)C2=O", "note": "(stereo not drawn)", "activity change, negative = cytotoxicity": "inactive: -4.66%"}
{"smiles": "O=C(NC1CCN(c2cc(-c3ccc(F)cc3)[nH]n2)C1)c1ccc2c(c1)OCO2", "note": "(stereo not drawn)", "Potency": "inconclusive: 79.4 µM [inhibitor, partial curve, poor fit]"}
{"smiles": "O=C(NC1CCCN(c2cc(-c3ccccc3)[nH]n2)C1)c1ccncc1", "note": "(stereo not drawn)", "activity change, negative = cytotoxicity": "inactive: -29.7%"}
{"smiles": "CN(Cc1nc(-c2ccccc2)no1)CC1(O)CNCCOC1", "note": "(stereo not drawn)", "activity change, negative = cytotoxicity": "inactive: -11.8%"}
{"smiles": "Cc1cc(=O)n(CC(=O)Nc2ccc(F)c(Cl)c2)c(N2CCOCC2)n1", "Potency": "inconclusive: 89.1 µM [inhibitor, single point]"}
{"smiles": "O=C1CCN(C(=O)c2ccoc2)CCCCCCN1", "activity change, negative = cytotoxicity": "inactive: 2.63%"}
{"smiles": "CCOc1ccc(-c2cc3c(=O)n(CCNC(=O)Cc4cccs4)ccn3n2)cc1", "Potency": "inconclusive: 79.4 µM [inhibitor, partial curve, poor fit]"}
{"smiles": "CC(C)CNC(=O)c1ccc(-c2nnc3ccc(NC(=O)C4CC4)cn23)cc1", "Potency": "inconclusive: 89.1 µM [inhibitor, partial curve, poor fit]"}
{"smiles": "COc1ccc(-c2nn(-c3ccc(F)cc3)c(OC(C)=O)c2-c2ccc(NC(C)=O)cc2)cc1OC", "Potency": "inconclusive: 56.2 µM [inhibitor, partial curve, poor fit]"}
{"smiles": "Cc1ccc(C2Cn3nnc(C(=O)N4CCN(C(=O)Cc5cccc(F)c5)CC4)c3CO2)cc1", "note": "(stereo not drawn)", "Potency": "inconclusive: 31.6 µM [inhibitor, single point]"}
{"smiles": "Oc1ccc(-c2nc(C3CC3)nc3c2CCN(Cc2ccccc2C(F)(F)F)CC3)cc1", "Potency": "active: 31.6 µM"}
{"smiles": "CCCCOC(=O)c1ccc(NC(=O)c2c(OC)cc(=O)n3c2CCCC3)cc1", "Potency": "inconclusive: 89.1 µM [inhibitor, single point]"}
{"smiles": "COCCCNC(=O)c1nc2cccnc2n(CCc2ccccc2)c1=O", "activity change, negative = cytotoxicity": "inactive: -19.8%"}
{"smiles": "Cc1nn(C(=O)CCC(=O)N2CCC(CCOc3ccccc3)C2)c2ccccc12", "note": "(stereo not drawn)", "Potency": "inconclusive: 89.1 µM [inhibitor, partial curve, poor fit]"}
{"smiles": "CCCn1cc(-c2ccncc2)cc1C(=O)N1CCN(c2ccccc2F)CC1", "Potency": "active: 44.7 µM"}
{"smiles": "Cc1ncoc1C(=O)N1CCC2(CC1)CC(N(Cc1ccc(F)cc1)C1CC1)CCO2", "note": "(stereo not drawn)", "Potency": "inconclusive: 50.1 µM [inhibitor, partial curve, poor fit]"}
{"smiles": "COCC(=O)N1CCc2nc(C3CC3)nc(-c3ccc(Cl)cc3)c2C1", "outcome": "inactive"}
{"smiles": "CCC(C(=O)N1CCN(c2cc(-c3cccs3)[nH]n2)CC1)c1ccccc1", "note": "(stereo not drawn)", "Potency": "inconclusive: 56.2 µM [inhibitor, partial curve, poor fit]"}
{"smiles": "Cc1ccccc1C(=O)N1CCC(N2C(=O)c3c(c(C)nn3-c3ccccc3)C2C(C)C)C1", "note": "(stereo not drawn)", "Potency": "active: 39.8 µM"}
{"smiles": "CCOc1ccc(CC(=O)N2CCC3(CC2)C(=O)N(C)c2ccccc23)cc1", "Potency": "inconclusive: 50.1 µM [inhibitor, partial curve, poor fit]"}
{"smiles": "CCCc1ccc(S(=O)(=O)NC2CCN(c3ccc(=O)n(CC4CC4)n3)CC2)cc1", "Potency": "inconclusive: 31.6 µM [inhibitor, partial curve, poor fit]"}
{"smiles": "COc1cc(NC(=O)Cn2c(Nc3cc(C)cc(C)c3)nc(C)cc2=O)cc(OC)c1OC", "Potency": "inconclusive: 79.4 µM [inhibitor, partial curve, poor fit]"}
{"smiles": "C=CCC(=O)N1CCCC1C(=O)Nc1ccc(-c2cccc(OC)c2)cc1", "note": "(stereo not drawn)", "Potency": "inconclusive: 89.1 µM [inhibitor, single point]"}
{"smiles": "O=[S+]([O-])(NC1CCN(Cc2cccc(-c3cccs3)c2)CC1)c1cccs1", "Potency": "inconclusive: 44.7 µM [inhibitor, partial curve, poor fit] and inconclusive: 50.1 µM [inhibitor, partial curve, poor fit]"}
{"smiles": "O=C(CC(c1ccccc1)c1ccc(Cl)cc1)N1CCC(CO)CC1", "note": "(stereo not drawn)", "Potency": "inconclusive: 22.4 µM [inhibitor, partial curve, poor fit]"}
{"smiles": "O=C(Nc1ccc(F)cc1F)N1CCOc2ccc(CN3CCc4ccccc4C3)cc2C1", "Potency": "inconclusive: 56.2 µM [inhibitor, partial curve, poor fit]"}
{"smiles": "COc1ccc(-c2noc([C@@H]3C[C@H](NS(=O)(=O)c4ccc(C)cc4)CN3C)n2)cc1", "Potency": "inconclusive: 89.1 µM [inhibitor, partial curve, poor fit]"}
{"smiles": "COc1cccc(-c2ccc(CN3CCCC(NC(=O)c4cccc(Cl)c4)C3)cc2)c1", "note": "(stereo not drawn)", "Potency": "inconclusive: 17.8 µM [inhibitor, full curve, poor fit]"}
{"smiles": "COc1ccc(-c2cnc3[nH]cc(CC(=O)NCc4cccnc4)c3c2)cc1OC", "Potency": "inconclusive: 79.4 µM [inhibitor, partial curve]"}
{"smiles": "O=C(NCCc1ccccc1F)c1ccc2nnc(-c3ccc(Cl)cc3)n2c1", "Potency": "inconclusive: 56.2 µM [inhibitor, partial curve, poor fit]"}
{"smiles": "CCN(CC)C(=O)CCc1c(C)nn(-c2ccc(F)cc2)c1Oc1ccccc1F", "Potency": "inconclusive: 56.2 µM [inhibitor, partial curve, poor fit]"}
{"smiles": "CC1=C[C@@H](CN2CCC(C(N)=O)CC2)[C@H](C(C)C)C[C@H]1Cc1nnc(-c2ccc(N(C)C)cc2)o1", "Potency": "active: 39.8 µM"}
{"smiles": "O=C(c1cc2ccccc2[nH]1)N1C[C@@H](CO)[C@H](c2nc(C3CC3)no2)C1", "Potency": "inconclusive: 79.4 µM [inhibitor, partial curve, poor fit]"}
